The values that follow come from PubChem BioAssay AID686979 (National Center for Advancing Translational Sciences (NCATS), 2013).

In all, about 420,000 compounds went through this assay and about 50,000 (12%) were called active. Another 26% or so got no clear call; they are omitted. Calls follow the shape of the dose curve; as a rule, active = well fitted inhibition curve with a large enough effect; inconclusive = small, poorly fitted or top-dose-only effect; inactive = flat fitted curve, though single readings scatter. Only a part is listed here, and it is no random draw. The source holds several records for some structures; these can differ, active in one and inactive in another.
% is scaled to controls: 0 for no effect and ±100 for the full control effect; potency is read from the fitted curve at half-maximal effect.

The assay is described as follows: qHTS for Inhibitors of human tyrosyl-DNA phosphodiesterase 1 (TDP1): qHTS in cells in presence of CPT. Also: nearly all actives have a fitted effect of over 55% in size. Conditions: chicken DT40 Tdp1-/-;hTDP1 cells + 20 nM CPT, ATP luminescence, 48 h; series mostly up to 46.2 µM; activity change, negative = growth inhibition: at the top concentration. A digest of the protocol: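 Chicken DT40 Tdp1-/- cells stably complemented with human TDP1 were seeded at 400 cells/well in medium containing 20 nM camptothecin, exposed to pin-transferred compounds, and grown at 37 °C for at least 48 hr. Viability was read as ATP luminescence.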
Take `Cc1ccc(Nc2cc(=O)[nH]c(=O)[nH]2)cc1C`: the “activity change, negative = growth inhibition” value was inactive: -17.2%.
In the case of `CS/C(=N\S(=O)(=O)c1cccs1)NC(=O)CSc1nc2ccccc2s1`, the “activity change, negative = growth inhibition” value is inactive: -4.76%.
Regarding `COc1ccc(-n2nnnc2C(c2cccc3ccccc23)N2CCN(C/C=C/c3ccccc3)CC2)cc1` (stereo not given), the Potency was active: 7.31 µM.
`O=C(NCc1ccccn1)c1c(-c2ccccc2)sc2ccccc12`: the Potency was active: 23.1 µM.
The same measure, in the same setting: the entry for `CCOc1ccc2ccccc2c1C(=O)N[C@@H]1C(=O)N2[C@@H]1SC(C)(C)[C@@H]2C(=O)O` is “inactive”.
Take `CC(CNC(=O)CN1C(=O)CCSc2ccccc21)c1ccccc1` (stereo not given): the “activity change, negative = growth inhibition” value is inactive: 55.7%.
With `CC(C)NCC(O)COc1ccc(CCOCC2CC2)cc1` (stereo not given), the “activity change, negative = growth inhibition” value is inactive: 1.88%.
With `O=C1[C@H]2[C@H](C=CC[C@H]2C(=O)N2CCOCC2)CCN1Cc1ccc(Cl)c(Cl)c1`, the “activity change, negative = growth inhibition” value was inactive: 4.44%.
Still for that read-out and setting: for `CCCN1CCCC[C@H]1C(=O)Nc1c(C)cccc1C` the value was inactive: 8.04%; for `COc1cccc(Oc2ccc(OC)cc2C(=O)O)c1`, inactive: 3.84%.
As for `Cc1ccc(S(=O)(=O)NC(=O)NCc2ccc(F)cc2)cc1`, the “activity change, negative = growth inhibition” value is inactive: 50.5%.
Regarding `CCC1CCCCN1CCCNC(=O)CN1C(=O)CSc2ccc(S(=O)(=O)N3CCC(C)CC3)cc21` (stereo not given), the “activity change, negative = growth inhibition” value was inactive: -11.1%.
Take `COC(C[C@@H](O)[C@H](C)[C@H](O)COCc1ccccc1)OC`: the “activity change, negative = growth inhibition” value was inactive: 10.9%.
As to `C=CCNc1nc(-c2ccc(O)c(C(N)=O)c2)cs1`, the Potency was active: 13 µM.
For `COc1ccc([C@H](NC(=O)OC(C)(C)C)C(=O)OC(C)(C)C)cc1`, the “activity change, negative = growth inhibition” value is inactive: -22.6%.
Turning to `CN/C(=C\[N+](=O)[O-])NCCSCc1ccc(CN(C)C)o1`, the Potency entry was “inactive”.
For `CS(=O)(=O)c1ccccc1C(=O)N(CCC1=CCCCC1)c1c(N)n(Cc2ccccc2)c(=O)[nH]c1=O`, the Potency was active: 29.1 µM.
On to `CC1=C(C(=O)Nc2ccccc2)C(c2ccc(C)cc2)N=C(Nc2nc3ccccc3o2)N1` (stereo not given), for which the Potency is active: 18.4 µM.
`O=C1/C(=C/c2ccncc2)SC(=S)N1C1CCCCC1`: the “activity change, negative = growth inhibition” value is inactive: -12.5%.
Turning to `OCC[C@@H]1C[C@@H](O)[C@H](O)[C@]2(OCCc3ccccc32)O1`, the “activity change, negative = growth inhibition” value was inactive: -20.9%.
For the compound `Cc1nnc(SCC(=O)Nc2cc(S(=O)(=O)N3CCOCC3)ccc2N2CCCC2)s1`, the “activity change, negative = growth inhibition” value is inactive: 50.6%.
On the same count and under the same terms, the figure for `O=C1C(Cc2ccccc2)Nc2ncnc(N3CCOCC3)c2N1Cc1ccc(Cl)cc1` (stereo not given) is inactive: -18.8%.
With `CCOCN(C(=O)Cn1cnc2ccccc21)c1c(C)cccc1CC`, the Potency was active: 20.6 µM.
Consider `CCC(C)NC(=S)Nc1ccccc1OC` (stereo not given), for which the “activity change, negative = growth inhibition” value is inactive: -2.27%.
As for `CNC(=O)c1ccc(NC(=O)c2cc(S(=O)(=O)N3CCOCC3)ccc2N2CCCC2)cc1`, the “activity change, negative = growth inhibition” value was inactive: -2.53%.
Still for that read-out and setting: for `COc1ccc(N2CCN(C(=O)COCc3cc(-c4ccc5c(c4)OCO5)on3)CC2)cc1` the value was inactive: -28.9%; for `CCOc1ccc(NC(=O)CSc2ncnc3c2sc2ccccc23)cc1`, inactive: -0.672%.
As to `COc1ccc(/C=C(\NC(=O)c2ccc([N+](=O)[O-])cc2)C(=O)NCCN2CCOCC2)cc1`, the “activity change, negative = growth inhibition” value is inactive: 3.24%.
As for `CCOC(=O)[C@@H]1[C@H]2COc3cc(OC)ccc3[C@@H]2N2C(=O)N(c3cccc(F)c3)C(=O)[C@]12C`, the “activity change, negative = growth inhibition” value is inactive: -11.1%.
`CC(NC(=O)COc1ccccc1)C(=O)OCC(=O)c1cc2ccccc2o1` (stereo not given): the “activity change, negative = growth inhibition” value is inactive: -18.2%.
Turning to `CCCC(C)C(=O)Nc1cc([N+](=O)[O-])ccc1Cl` (stereo not given), the “activity change, negative = growth inhibition” value is inactive: 33.4%.
On to `CC(=O)Nc1ccc(NC(=O)c2cc(=O)c3ccccc3o2)cc1`, for which the “activity change, negative = growth inhibition” value was inactive: -24.5%.
Still for that read-out and setting: the figure for `COc1ccccc1Oc1coc2cc(O)ccc2c1=O` is inactive: -24.4%.
As for `O=C1CCC(=O)N1OCCOc1ccc(Cl)c2ccccc12`, the “activity change, negative = growth inhibition” value was inactive: 37.1%.
Consider `C=CC[C@H](CC(=O)OC(C)(C)C)C(=O)OC[C@H]1CCCN1C(=O)[C@H](CC=C)CC(=O)NCCO`, for which the “activity change, negative = growth inhibition” value was inactive: -1.68%.
Consider `COc1ccc(COCCN2CCN(S(=O)(=O)c3ccc(C)cc3)CCC2=O)cc1`, for which the Potency was active: 20.6 µM.
In the case of `O=C(O)COCCN1CCN(C(c2ccccc2)c2ccc(Cl)cc2)CC1` (stereo not given), the Potency entry was “inactive”.
For the compound `C[C@H]1CN(C2CCCCC2)C(=O)[C@@H]1CC(=O)NCc1ccccc1`, the “activity change, negative = growth inhibition” value was inactive: 9.13%.
On the same count and under the same terms, for `N=C(N)c1ccc(/C=C/c2ccc(C(=N)N)cc2O)cc1` the value was inactive: -103%; for `Cc1cccc(-c2cc(=O)c3cc(C)ccc3o2)c1`, inactive: 5.69%.
Consider `O=C(Nc1nnc(-c2ccco2)o1)c1ccc([N+](=O)[O-])s1`, for which the Potency is active: 8.2 µM.
Consider `Cc1cccc(CC(=O)Nc2ccc3nc(N4CCC(C)CC4)cc(C)c3c2)c1`, for which the Potency is active: 20.6 µM.
On to `COc1ccc([C@H]2CC(=O)c3c(O)cc(O)cc3O2)cc1O`, for which the “activity change, negative = growth inhibition” value is inactive: -1.14%.
For the compound `NS(=O)(=O)c1ccc(NC(=O)CCCCC(=O)Nc2ccc(S(N)(=O)=O)cc2)cc1`, the “activity change, negative = growth inhibition” value was inactive: -31.2%.
For `Cc1cc(OC(C)C(=O)NC(Cc2c[nH]c3ccc(O)cc23)C(=O)O)c2c(C)cc(=O)oc2c1` (stereo not given), the “activity change, negative = growth inhibition” value is inactive: 37.1%.
For the compound `CCC1OC(=O)C(C)C(OC2C[C@@](C)(OC)C(O)C(C)O2)C(C)C(O[C@@H]2OC(C)CC(N(C)C)C2O)[C@](C)(O)CC(C)C(=NOCOCCOC)C(C)C(O)[C@]1(C)O` (stereo not given in full), the “activity change, negative = growth inhibition” value was inactive: -13.3%.
Consider `CC1CCCCN1S(=O)(=O)c1ccc(C(=O)N(CCCN(C)C)c2nc3ccc(Br)cc3s2)cc1` (stereo not given), for which the Potency is active: 20.6 µM.
`COc1cc(OC)c(NC(=O)CCNS(=O)(=O)c2ccc3c(c2)oc(=O)n3C)cc1Cl`: the “activity change, negative = growth inhibition” value was inactive: 1.44%.
The same measure, in the same setting: for `CC(=O)NC(CCS(C)(=O)=O)C(=O)Nc1cccc2ccccc12` (stereo not given) the value was inactive: 38.3%; for `CCN(c1cc(C)cc(C)c1)S(=O)(=O)c1nnc(NC(=O)c2ccco2)s1`, inactive: -30%.
